# Laboratory results taken from US8809377B2, “Deubiquitinase inhibitors and methods for use of the same” (The Regents of the University of Michigan, priority 2010, dated 2014).
# Read-outs that look alike come from different tables or passages of the source.
# Tested on: Norwalk virus replicon
# Settings: for reduction in viral genome titers by qRT-PCR: Norwalk virus replicon, human hepatoma (HuH-7), after 24 hrs of treatment
smiles,measurement,setting,value
CCC[C@H](NC(=O)/C(C#N)=C/c1cccc(Br)n1)c1ccccc1 [WP1130],"anti-NV effect (NV genome, qRT-PCR)","HG23 cells, 5 μM, 48 hr post-treatment",significant anti-NV effect
same,reduction in viral genome titers by qRT-PCR,,50%
same,reduction in viral genome titers by qRT-PCR,listed as HWP1130,50%
